Reference: PubChem BioAssay AID588591 (National Center for Advancing Translational Sciences (NCATS), 2011)
About 4,700 (1.2%) of roughly 390,000 compounds were called active. Inconclusive means that the source gave no clear call. Such entries were picked first, then a sample of the others. Calls follow the shape of the dose curve; as a rule, active = well fitted inhibition curve with a large enough effect; inconclusive = small, poorly fitted or top-dose-only effect, or another doubt; inactive = no such curve, though single readings can be large or run the other way. Potencies beside an inconclusive call are fits to weak or partial responses and may not hold up.

These compounds were tested against DNA polymerase eta (Homo sapiens) (UniProt Q9Y253) (assay: qHTS for Inhibitors of Polymerase Eta). Conditions: recombinant Pol eta, fluorescent DNA replication assay; series mostly up to 114 µM.
Sequence of UniProt Q9Y253 (Q9Y253 whole entry, looked up): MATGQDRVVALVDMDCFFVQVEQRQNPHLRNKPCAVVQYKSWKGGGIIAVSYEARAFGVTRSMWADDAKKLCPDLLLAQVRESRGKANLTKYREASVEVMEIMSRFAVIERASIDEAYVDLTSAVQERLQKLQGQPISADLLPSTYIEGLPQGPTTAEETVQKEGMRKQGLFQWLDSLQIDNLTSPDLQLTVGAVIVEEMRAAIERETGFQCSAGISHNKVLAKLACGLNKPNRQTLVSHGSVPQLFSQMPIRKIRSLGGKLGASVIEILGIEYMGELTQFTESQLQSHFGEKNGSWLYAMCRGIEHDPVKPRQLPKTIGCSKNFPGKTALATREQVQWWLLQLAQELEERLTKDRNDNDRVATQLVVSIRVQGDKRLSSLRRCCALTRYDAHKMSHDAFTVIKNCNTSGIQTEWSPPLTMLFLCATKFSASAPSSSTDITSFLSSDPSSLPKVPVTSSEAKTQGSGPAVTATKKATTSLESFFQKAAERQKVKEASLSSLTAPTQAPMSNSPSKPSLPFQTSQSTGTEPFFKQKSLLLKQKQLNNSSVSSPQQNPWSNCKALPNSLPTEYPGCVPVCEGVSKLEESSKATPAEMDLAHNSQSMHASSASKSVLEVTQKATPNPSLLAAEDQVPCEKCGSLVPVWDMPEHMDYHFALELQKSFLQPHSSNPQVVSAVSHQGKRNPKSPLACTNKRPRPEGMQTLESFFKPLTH
Method in brief: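 Fluorescent replication assay: 50 nM final substrate added after a 15 min room-temperature compound preincubation with 10 nM enzyme. Signal taken at 0 min and again at 10 min.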
Potency is read from the fitted curve at half-maximal effect; tags tell the direction and shape of the fitted curve.

Structure (SMILES)	Potency
N#CCc1ccc(NC(=O)Nc2cccc(Cl)c2)cc1	inconclusive: 100 µM [inhibitor, single point]
O=C(CSc1nnc(NC(=O)c2c(F)cccc2Cl)s1)Nc1ccccc1F	inconclusive: 14.1 µM [inhibitor, partial curve, poor fit]
c1ccc2c(c1)ccc1nnnn12	inconclusive: 31.6 µM [inhibitor, partial curve, poor fit]
O=S(=O)(Nc1cc(Sc2ncn[nH]2)c(O)c2ccccc12)c1ccccc1	active: 22.4 µM
Nc1nc(SCC(=O)c2ccc(F)cc2)n[nH]1	inconclusive: 100 µM [inhibitor, partial curve, poor fit]
CCOCCCNC(=S)N(Cc1ccccc1)Cc1nc2ccccc2c(=O)[nH]1	inconclusive: 79.4 µM [inhibitor, partial curve, poor fit]
N/C(Cc1ccc([N+](=O)[O-])cc1)=N\OC(=O)c1ccc2ccccc2c1	inconclusive: 39.8 µM [inhibitor, single point]
O=C(Nc1ccccc1F)c1coc(=O)c(Br)c1	active: 79.4 µM
COc1cc(Cl)c(C)cc1NC(=O)CSc1cc(-c2ccccc2)nc(C)n1	inactive
O=C(NCc1ccco1)C1CC(c2c(Cl)cccc2Cl)=NO1 (stereo not drawn)	inconclusive: 15.8 µM [inhibitor, full curve, poor fit]
C(=N\Nc1ncnc2sc3c(c12)CCC3)/c1ccncc1	inconclusive: 31.6 µM [inhibitor, partial curve, poor fit]
COc1ccccc1NS(=O)(=O)c1cccc(NC(=O)C2CC(=O)N(Cc3ccccc3)C2)c1 (stereo not drawn)	inactive
Cc1ccccc1C1=CCN(c2ncc(NC(=O)c3ccc(Cl)cc3)cc2C(=O)O)CC1	inconclusive: 56.2 µM [inhibitor, partial curve, poor fit]
Cc1ccccc1C(=O)OCC(=O)NCc1ccco1	inconclusive: 12.6 µM [inhibitor, partial curve, poor fit]
CCC(=O)N(CCC(c1ccco1)c1ccccc1OC)Cc1cccs1 (stereo not drawn)	inconclusive: 14.1 µM [inhibitor, partial curve, poor fit]
S=c1[nH]c2ncccc2o1	inactive
COc1ccc2c(c1)c1c(c(=O)n(-c3ccc(OC)c(OC)c3)c(=O)n1CC(=O)N1CCCC1)n2C	inactive
N#Cc1c(NC(=O)COC(=O)c2nccnc2N)sc2c1CCCC2	inconclusive: 31.6 µM [inhibitor, partial curve, poor fit]
CCC1(C)NC(=O)N(CC(=O)Nc2sc3c(c2C(N)=O)CCC3)C1=O (stereo not drawn)	active: 79.4 µM
NC(=O)c1ccsc1NC(=O)CSc1nnc(C2CC2)n1Cc1ccccc1	inconclusive: 39.8 µM [inhibitor, single point]
CC1Cc2cc(/C(O)=C3/C(=O)C(=O)N(CCN4CCOCC4)C3c3ccc([N+](=O)[O-])cc3)ccc2O1 (stereo not drawn)	inactive
COc1cccc(NC(=O)CC2S/C(=N\S(=O)(=O)c3ccccc3)N(c3ccccc3)C2=O)c1 (stereo not drawn)	inconclusive: 79.4 µM [inhibitor, partial curve, poor fit]

Structure (SMILES)	Potency
Cc1cnc(C(=O)OCC(=O)c2ccc(C)s2)cn1	inactive
CCN(CCCNC(=O)CN(C)S(=O)(=O)c1cccc2nsnc12)c1ccccc1	inconclusive: 5.01 µM [inhibitor, partial curve, poor fit]
CC(=NO)c1ccc2c(c1)Cc1cc([N+](=O)[O-])ccc1-2	inconclusive: 20 µM [inhibitor, single point]
Cc1onc(-c2c(F)cccc2Cl)c1C(=O)OCC(=O)NCc1ccco1	inconclusive: 20 µM [inhibitor, full curve]
O=[N+]([O-])c1cc2c(c([N+](=O)[O-])c1)Nc1ccccc1O2	inconclusive: 20 µM [inhibitor, full curve]
Cc1ccc(-c2nc3ncccc3o2)cc1NC(=O)c1ccc([N+](=O)[O-])o1	inactive
Cc1ccc(C2C(C#N)=C(N)Oc3cc4c(cc32)OCO4)cc1 (stereo not drawn)	inconclusive: 39.8 µM [inhibitor, partial curve, poor fit]
COc1ccc(Cn2c(/C=C/c3ccccc3)nc3ccccc32)cc1	inactive
O=C(OCC(=O)N1CCCCC1)c1cc(NS(=O)(=O)c2ccc(Cl)c([N+](=O)[O-])c2)ccc1O	inconclusive: 25.1 µM [inhibitor, partial curve, poor fit]
O=c1/c(=C\c2cccnc2)sc2nc3ccccc3n12	inactive
CCc1nnc(NC(=O)c2ccc(Cl)c(S(=O)(=O)N3CCc4ccccc43)c2)s1	inconclusive: 8.91 µM [inhibitor, partial curve, poor fit]
Nc1nc(N)c(N=Nc2ccc(Cl)cc2)c(=O)[nH]1	inconclusive: 79.4 µM [inhibitor, partial curve]
COC(=O)c1c(N)sc(Cc2ccccc2)c1C	inconclusive: 100 µM [inhibitor, partial curve, poor fit]
CCOc1ccc(NC(=O)c2ccc(NC(=O)COC(=O)c3ccc(NC(=O)CC#N)cc3)cc2)cc1	active: 1.26 µM
COc1ccc(-c2cc(N)n(S(=O)(=O)c3ccc(C)cc3)n2)c(OC)c1	inconclusive: 89.1 µM [inhibitor, partial curve, poor fit]
O=C(COC(=O)c1c2c(nc3ccccc13)/C(=C/c1ccco1)CC2)NC1CCCC1	active: 3.55 µM
COc1ccccc1N(C1=NCCCS1)S(=O)(=O)c1ccc(C(C)(C)C)cc1	inconclusive: 50.1 µM [inhibitor, partial curve, poor fit]
O=C(O)COc1ccc(Br)cc1/C=C1/SC(=O)N(CC(=O)N2CCCC2)C1=O	inactive
COC(=O)CCNC(=O)Cc1ccc(S(=O)(=O)N2CCCCC2)s1	active: 79.4 µM
COc1cccc(N2CCN(C(=O)c3ccc4nc[nH]c4c3)CC2)c1	active: 89.1 µM
CCOc1cccc(-c2nnc3sc(COc4ccc(OC)cc4)nn23)c1	inconclusive: 28.2 µM [inhibitor, single point]
